The other results are listed elsewhere or left out.

The test system of the experiment is HepG2. Briefly: cytotoxicity call (relative viability < 0.9). Conditions: 10 µM.
Consider `C[C@H](CO)N1C[C@H](C)[C@@H](CN(C)Cc2ccc(Oc3ccccc3)cc2)Oc2ccc(NC(=O)NC3CCCCC3)cc2CC1=O`, for which the cytotoxicity call is “inactive”.
In the case of `Cc1noc(C)c1NC(=O)Nc1ccc2c(c1)C(=O)N([C@@H](C)CO)C[C@@H](C)[C@H](CN(C)C(=O)Nc1ccc3c(c1)OCO3)OCCCC[C@H](C)O2` it was “inactive”.
The result for `C[C@@H]1CN([C@@H](C)CO)C(=O)c2cc(NC(=O)Cn3cnnn3)ccc2O[C@H]1CN(C)Cc1ccc(C(F)(F)F)cc1` reads “inactive”; that for `CC(C)NC(=O)N(C)C[C@@H]1Oc2ccc(NS(=O)(=O)c3ccc(F)cc3)cc2CC(=O)N([C@H](C)CO)C[C@H]1C`, “inactive”; that for `C[C@H](CO)N1C[C@H](C)[C@H](CN(C)S(=O)(=O)c2cn(C)cn2)Oc2ccc(NC(=O)CCCN(C)C)cc2C1=O`, “inactive”.
The result for `C[C@@H]1CCCCO[C@@H](CN(C)S(=O)(=O)c2cn(C)cn2)[C@H](C)CN([C@H](C)CO)C(=O)c2cc(NC(=O)Nc3cccc4ccccc34)ccc2O1` reads “inactive”; that for `CC[C@@H](NC)C(=O)O`, “inactive”; that for `C[C@@H]1CCCCO[C@H](CN(C)Cc2ccccc2)[C@@H](C)CN([C@H](C)CO)C(=O)c2cc(NS(=O)(=O)c3ccc(Cl)cc3)ccc2O1`, “inactive”.
For `Cc1noc(C)c1S(=O)(=O)Nc1ccc2c(c1)C(=O)N([C@@H](C)CO)C[C@@H](C)[C@@H](CN(C)C(=O)NC1CCCCC1)O2`, the cytotoxicity call was “inactive”.
The result for `Cc1ccc(S(=O)(=O)N(C)C[C@@H]2OCCCC[C@H](C)Oc3ccc(NC(=O)Nc4ccc(C(F)(F)F)cc4)cc3C(=O)N([C@H](C)CO)C[C@H]2C)cc1` reads “inactive”; that for `Cc1ccc(S(=O)(=O)NCC[C@@H]2CC[C@H](NS(=O)(=O)c3ccccc3Cl)[C@H](CO)O2)cc1`, “inactive”.
In the case of `C[C@@H]1CN([C@@H](C)CO)C(=O)c2cc(NC(=O)Cc3ccccc3)ccc2O[C@@H](C)CCCCO[C@@H]1CN(C)Cc1ccncc1` it was “inactive”.
The result for `COc1ccc2c3c([nH]c2c1)[C@H](CO)N(CC1CCCC1)C[C@]13CCN(CC1)C(=O)Nc1cccc(c1)F` reads “inactive”.
With `Cc1noc(C)c1S(=O)(=O)N(C)C[C@H]1OCCCC[C@H](C)Oc2ccc(NC(=O)Nc3ccc(F)cc3)cc2C(=O)N([C@@H](C)CO)C[C@@H]1C`, the cytotoxicity call is “inactive”.
The result for `O=C(CN1CCOCC1)NCC[C@H]1CC[C@@H](NC(=O)Nc2ccccc2)[C@H](CO)O1` reads “inactive”.
`C[C@@H]1CN([C@H](C)CO)C(=O)Cc2cc(NS(=O)(=O)c3ccc(Cl)cc3)ccc2O[C@H]1CN(C)Cc1ccc(C(=O)Nc2ccccc2N)cc1`: the cytotoxicity call is “inactive”.
The result for `Cc1ccc(S(=O)(=O)N[C@H](C(=O)NCCn2cc(CN3C(=O)COC[C@H]3c3ccccc3)nn2)C(C)C)cc1` reads “inactive”; that for `O=C(C[C@@H]1CC[C@@H]2[C@H](COC[C@H](O)CN2S(=O)(=O)c2ccc(Oc3ccccc3)cc2)O1)NCCN1CCCCC1`, “inactive”.
Turning to `C[C@@H]1O[C@@H](O[C@H]2[C@H](Oc3cc(O)c4c(c3)O[C@H](c3ccc(O)cc3)CC4=O)O[C@H](CO)[C@@H](O)[C@@H]2O)[C@H](O)[C@H](O)[C@H]1O`, the cytotoxicity call is “inactive”.
On to `Cc1ccc(S(=O)(=O)N(C)C[C@H]2Oc3ccc(NC(=O)CCCN(C)C)cc3CC(=O)N([C@H](C)CO)C[C@@H]2C)cc1`, for which the cytotoxicity call was “inactive”.
Turning to `C[C@@H]1CN([C@H](C)CO)C(=O)c2c(c3ccccc3n2C)-c2ccccc2CO[C@@H]1CN(C)S(=O)(=O)c1ccc(C(F)(F)F)cc1`, the cytotoxicity call is “inactive”.
The result for `C[C@H]1CN([C@@H](C)CO)C(=O)Cc2cc(NC(=O)Nc3ccccc3)ccc2O[C@@H]1CN(C)Cc1ccc(Cl)c(Cl)c1` reads “active”.
Consider `C[C@@H](NC(=O)C[C@@H]1CC[C@@H](NC(=O)CN2CCOCC2)[C@H](CO)O1)c1ccccc1`, for which the cytotoxicity call was “inactive”.
Take `CC1(C)OC2CC(=O)OCC23C1CC(=O)C1(C)C3CCC2(C)C(c3ccoc3)OC(=O)C3OC321` (stereo not drawn): the cytotoxicity call is “inactive”.
Take `COc1ccc(cc1)NC(=O)N1C[C@]2(C1)CN([C@@H](CO)c1[nH]c3cc(ccc3c12)OC)C(=O)CN1CCOCC1`: the cytotoxicity call is “inactive”.
The result for `CN(C)C(=O)CN1C[C@@H]2CCN(C(=O)NCc3ccccc3)CC[C@H]2S1(=O)=O` reads “inactive”; that for `CC(C)(C)C(=O)N[C@@H]1CC(=O)N(C2CC2)C1`, “inactive”; that for `C[C@H](CO)N1C[C@H](C)[C@@H](CN(C)C(=O)Nc2cccc3ccccc23)OCCCC[C@H](C)Oc2ccc(NC(=O)c3ccncc3)cc2C1=O`, “inactive”.

For the origin of these results see the antibiotic and cytotoxicity screens of Wong et al. (2023).
